AUC and IC50 data for six cell lines are collected here from the supplement of paper PMC4967469.

IC50 is the fitted dose that halves viability relative to control wells, and lower means more sensitive; a fit beyond the top or the lowest dose is shown as a bound at that dose. The AUC spans the tested range (256-fold, ending at the top dose) of the same fit; it is 1 without any effect and falls as sensitivity rises. For part of these data: An inferred top dose is not printed in the source and was worked back from the curve model. For part of these data: Drugs with an entry number were screened twice under separate entries, and the two screens often disagree.

Holding throughout (test): Viability of human cancer cell lines after 72 h of drug (GDSC screen)
Compound in one assay: C/C(O)=C(\C#N)C(=O)Nc1cc(Br)ccc1Br [LFM-A13]
As to conditions: top dose 16 µM; top dose inferred. As to the method: (§1)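 Human cancer cell lines in 384-well plates, medium with 10% serum, drug for 72 h over a 256-fold dose range (nine 2-fold or five 4-fold steps up to the top dose). Adherent lines were fixed and stained with the nucleic acid dye Syto60, suspension lines read with resazurin; signal relative to control wells, capped at 0 and 100%. One two-parameter sigmoid per drug and line, fitted in a mixed model over all curves with the slope shared within a line.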

Compound in the next assay: CC(C)c1ccccc1Cc1cc(C(=O)Nc2ccc(S(=O)(=O)c3ccccc3C(C)(C)C)cc2)c(O)c(O)c1O [TW-37]
As to conditions: top dose 5 µM. As to the method:
as §1

Compound in a further assay: CC(O)(CS(=O)(=O)c1ccc(F)cc1)C(=O)Nc1ccc(C#N)c(C(F)(F)F)c1 [Bicalutamide]
As to conditions: top dose inferred. As to the method:
as §1

Compound in another assay: CCNC(=O)c1noc(-c2cc(C(C)C)c(O)cc2O)c1-c1ccc(CN2CCOCC2)cc1 [AUY922]
The conditions noted are these: top dose 0.256 µM; top dose inferred. On the procedure: as §1

Compound in the next assay: Cc1ccc(Nc2cc(-c3cccc(N4C(=O)c5ccccc5C4=O)c3)ncn2)cc1NS(C)(=O)=O [KIN001-270]
The conditions noted are these: top dose 20 µM; top dose inferred. As to the method: as §1

Compound in another assay: Cc1cn(-c2cc(NC(=O)c3ccc(C)c(Nc4nccc(-c5cccnc5)n4)c3)cc(C(F)(F)F)c2)cn1 [Nilotinib]
The conditions noted are these: top dose 2 µM. As to the method:
as §1

Compound in the next assay: NC(=O)c1cccc(-c2cc(Nc3ccc(OC(F)(F)F)cc3)ncn2)c1 [GNF-2]
The conditions noted are these: top dose 1.28 µM; top dose inferred. On the procedure:
as §1

Compound in another assay: Nc1ccn([C@@H]2O[C@H](CO)[C@@H](O)C2(F)F)c(=O)n1 [Gemcitabine]
As to conditions: top dose 1.024 µM. On the procedure:
as §1

Compound in a further assay: O=S(=O)(c1ccccc1)N(CC(F)(F)F)c1ccc(C(O)(C(F)(F)F)C(F)(F)F)cc1 [T0901317]
The conditions noted are these: top dose 10.24 µM; top dose inferred. As to the method:
as §1

Compound in the next assay: S=C(NCc1ccc2c(c1)OCO2)N1CCN(c2ncnc3c2oc2ccccc23)CC1 [MP470]
As to conditions: top dose 20 µM; top dose inferred. As to the method: as §1

[1] abbreviates: top dose 1.024 µM, screen: GDSC drug entry 150.
The mark [2] stands for this setting: top dose 10 µM, screen: GDSC drug entry 1502.

As to CW-2 (large intestine, adherent), the AUC in the assay with LFM-A13 is 0.989; with TW-37 it was 0.55; in the assay with Bicalutamide (setting [1]), 0.987; in the assay with Bicalutamide (setting [2]), 0.988; with AUY922, 0.989; in the assay with KIN001-270, 0.986. Besides, the AUC with Nilotinib was found to be 0.986; in the assay with GNF-2 it was 0.989; with Gemcitabine it was 0.973; with T0901317 it was 0.963; with MP470 it was 0.888. Besides, the IC50 (usually the concentration needed to halve the response being measured) in the assay with LFM-A13 was more than 16000 nM; with TW-37, 432 nM; with Bicalutamide (setting [1]), more than 1020 nM; with Bicalutamide (setting [2]) it was more than 10000 nM; in the assay with AUY922, more than 256 nM; with KIN001-270 it was more than 20000 nM. Also, the half-inhibitory concentration (IC50) with Nilotinib is more than 2000 nM; with GNF-2, more than 1280 nM; in the assay with Gemcitabine it was more than 1020 nM; with T0901317, more than 10200 nM; in the assay with MP470, more than 20000 nM.

Consider SW962 (urogenital system, adherent), for which the AUC worked out at 0.952 with LFM-A13; 0.51 with TW-37; 0.975 in the assay with Bicalutamide (setting [1]); 0.943 with Bicalutamide (setting [2]); 0.465 in the assay with AUY922; 0.948 with KIN001-270. The AUC in the assay with Nilotinib came out at 0.982; with GNF-2, 0.963; in the assay with Gemcitabine it was 0.322; in the assay with T0901317 it was 0.982; with MP470 it was 0.975. For the same cell line, the IC50 with LFM-A13 is more than 16000 nM; with TW-37, 335 nM; with Bicalutamide (setting [1]), more than 1020 nM; with Bicalutamide (setting [2]), more than 10000 nM; with AUY922, 12.5 nM; in the assay with KIN001-270 it was more than 20000 nM. Besides, the IC50 with Nilotinib was more than 2000 nM; with GNF-2, more than 1280 nM; with Gemcitabine it was 18 nM; with T0901317 it was more than 10200 nM; with MP470, more than 20000 nM.

On to U-698-M (B-cell leukaemia, suspension), for which the AUC with LFM-A13 was 0.959; in the assay with TW-37, 0.532; with Bicalutamide (setting [1]), 0.981; with Bicalutamide (setting [2]) it was 0.969; with AUY922, 0.589; with KIN001-270 it was 0.891. Also, the AUC with Nilotinib stood at 0.966; with GNF-2 it was 0.982; with Gemcitabine it was 0.495; with T0901317 it was 0.984; with MP470 it was 0.894. Further, the half-inhibitory concentration (IC50) with LFM-A13 was more than 16000 nM; with TW-37, 382 nM; in the assay with Bicalutamide (setting [1]) it was more than 1020 nM; with Bicalutamide (setting [2]), more than 10000 nM; with AUY922, 28.1 nM; in the assay with KIN001-270, more than 20000 nM. Besides, the half-inhibitory concentration (IC50) was more than 2000 nM with Nilotinib; more than 1280 nM in the assay with GNF-2; 62 nM with Gemcitabine; more than 10200 nM with T0901317; more than 20000 nM with MP470.

As to “MC-CAR (haematopoietic neoplasm, suspension)”, the AUC was 0.966 with LFM-A13; 0.397 with TW-37; 0.985 in the assay with Bicalutamide (setting [1]); 0.983 in the assay with Bicalutamide (setting [2]); 0.584 in the assay with AUY922; 0.962 with KIN001-270. Besides, the AUC is 0.981 with Nilotinib; 0.989 with GNF-2; 0.235 in the assay with Gemcitabine; 0.97 with T0901317; 0.97 in the assay with MP470. Further, the IC50 is more than 16000 nM with LFM-A13; 168 nM with TW-37; more than 1020 nM in the assay with Bicalutamide (setting [1]); more than 10000 nM with Bicalutamide (setting [2]); 26.4 nM with AUY922; more than 20000 nM in the assay with KIN001-270. The IC50 with Nilotinib was more than 2000 nM; in the assay with GNF-2, more than 1280 nM; with Gemcitabine, 12.2 nM; in the assay with T0901317, more than 10200 nM; in the assay with MP470 it was more than 20000 nM.

“NCI-H524 (small cell lung carcinoma, suspension)”: the AUC with LFM-A13 turned out to be 0.991; in the assay with TW-37, 0.492; with Bicalutamide (setting [1]) it was 0.99; with Bicalutamide (setting [2]), 0.99; in the assay with AUY922, 0.988; in the assay with KIN001-270, 0.991. Also, the AUC amounted to 0.98 in the assay with Nilotinib; 0.977 with GNF-2; 0.956 in the assay with Gemcitabine; 0.99 with T0901317; 0.945 with MP470. Further, the IC50 is more than 16000 nM with LFM-A13; 299 nM with TW-37; more than 1020 nM with Bicalutamide (setting [1]); more than 10000 nM with Bicalutamide (setting [2]); more than 256 nM with AUY922; more than 20000 nM in the assay with KIN001-270. Moreover, the IC50 is more than 2000 nM with Nilotinib; more than 1280 nM in the assay with GNF-2; more than 1020 nM in the assay with Gemcitabine; more than 10200 nM with T0901317; more than 20000 nM in the assay with MP470.

In the case of SNB75 (glioma, adherent), the AUC with LFM-A13 came out at 0.949; in the assay with TW-37, 0.316; in the assay with Bicalutamide (setting [1]) it was 0.978; with Bicalutamide (setting [2]) it was 0.975; with AUY922 it was 0.59; in the assay with KIN001-270, 0.968. Also, the AUC was found to be 0.965 with Nilotinib; 0.944 in the assay with GNF-2; 0.37 in the assay with Gemcitabine; 0.979 with T0901317; 0.967 with MP470. In addition, the IC50 with LFM-A13 is more than 16000 nM; with TW-37 it was 74.7 nM; with Bicalutamide (setting [1]), more than 1020 nM; with Bicalutamide (setting [2]), more than 10000 nM; with AUY922, 31.6 nM; with KIN001-270, more than 20000 nM. Moreover, the IC50 in the assay with Nilotinib was more than 2000 nM; with GNF-2, more than 1280 nM; in the assay with Gemcitabine, 23.7 nM; with T0901317, more than 10200 nM; with MP470 it was more than 20000 nM.
